Data reported in paper PMC4336329 (PLoS ONE, 2015).
The campaign covered roughly 310,000 compounds. About 2,200 (0.71%) showed an effect of 50% or more. The effect is printed as a negative number. The list shows a part of the results.

Target: human ether-à-go-go-related gene (hERG) potassium channel (human, UniProt Q12809)
Test: primary screen, population patch clamp on CHO cells stably expressing hERG

human ether-à-go-go-related gene (hERG) potassium channel, sequence (Q12809 whole entry, looked up): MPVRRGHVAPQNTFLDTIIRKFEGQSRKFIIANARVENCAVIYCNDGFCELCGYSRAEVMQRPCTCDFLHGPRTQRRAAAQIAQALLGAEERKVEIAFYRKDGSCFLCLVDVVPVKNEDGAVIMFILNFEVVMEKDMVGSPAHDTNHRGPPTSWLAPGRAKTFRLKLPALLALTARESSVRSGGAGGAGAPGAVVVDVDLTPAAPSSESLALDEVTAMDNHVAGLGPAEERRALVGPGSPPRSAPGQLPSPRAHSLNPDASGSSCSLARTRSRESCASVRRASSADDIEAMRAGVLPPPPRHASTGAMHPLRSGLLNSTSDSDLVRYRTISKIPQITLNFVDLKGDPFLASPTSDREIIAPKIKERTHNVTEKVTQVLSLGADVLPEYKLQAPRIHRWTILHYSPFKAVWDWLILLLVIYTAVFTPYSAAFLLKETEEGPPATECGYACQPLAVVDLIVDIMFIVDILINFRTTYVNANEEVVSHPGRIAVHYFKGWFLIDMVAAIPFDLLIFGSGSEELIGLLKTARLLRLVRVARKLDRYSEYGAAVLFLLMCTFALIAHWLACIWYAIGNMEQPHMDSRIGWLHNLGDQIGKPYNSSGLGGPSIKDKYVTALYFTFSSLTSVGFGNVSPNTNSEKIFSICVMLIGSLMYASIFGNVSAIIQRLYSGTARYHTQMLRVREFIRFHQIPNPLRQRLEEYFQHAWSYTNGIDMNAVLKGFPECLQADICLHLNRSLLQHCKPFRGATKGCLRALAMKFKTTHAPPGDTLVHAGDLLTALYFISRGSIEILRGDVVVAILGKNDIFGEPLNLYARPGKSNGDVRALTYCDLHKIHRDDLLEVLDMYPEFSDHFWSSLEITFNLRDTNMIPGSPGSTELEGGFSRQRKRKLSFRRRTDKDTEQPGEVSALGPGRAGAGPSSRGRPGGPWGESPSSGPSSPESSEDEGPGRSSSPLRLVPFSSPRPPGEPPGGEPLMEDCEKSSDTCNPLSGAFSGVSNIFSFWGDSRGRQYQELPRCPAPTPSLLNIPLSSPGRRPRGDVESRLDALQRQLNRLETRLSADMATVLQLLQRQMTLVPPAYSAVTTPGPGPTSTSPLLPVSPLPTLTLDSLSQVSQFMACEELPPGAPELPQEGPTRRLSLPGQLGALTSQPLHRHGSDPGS

Point of comparison: `CC(C)c1ccc(-n2ccnc2SCC(=O)O)cc1`, “hERG current change (%, negative = inhibition) at 1uM” value 8.94%. Against it:
- COc1ccc(C(=O)C(/C=N/O)=N/Nc2ccc(F)cc2)cc1 — higher, 21.7%
- Cc1ccc(OCC(O)Cn2nc(C)cc2C)cc1 (stereo not shown) — higher, 13.2%
- N#C/C(=C/c1cn[nH]c1-c1ccc(Br)cc1)C(=O)O — lower, 6.09%
- CC(C)CC(=O)Nc1c2c(nn1-c1cccc(Cl)c1)CS(=O)C2 (stereo not shown) — higher, 14.5%
- Cc1noc(C)c1CSc1nnc2cc(C)c3ccccc3n12 — higher, 11.9%
- Cc1cc(=O)oc2cc(OCC(=O)NCc3cccnc3)ccc12 — higher, 9.89%
- O=c1[nH]cnc(O)c1N=Nc1ccccc1 — higher, 17.5%
- CCCCCCNC(=O)N[C@@H](C(=O)NCCC[C@H]1CN2C(=NC[C@@H]2Cc2ccccc2)N1CCc1cccc(OC)c1)C(C)C — lower, -10.6%
- Cc1cc(C)cc(CSc2ccc(S(=O)(=O)N3CCCC3)cn2)c1 — lower, -2.2%
- O=C(CCc1ccccc1)NCc1ccncc1 — higher, 17.7%
- CSc1ncccc1C(=O)N(C)CC(=O)Nc1ccc(Cl)cc1 — higher, 11.9%
- Cc1ccc2c(C(=O)CN3CCN(c4ccccc4)CC3)c(C)[nH]c2c1 — higher, 14.7%
- COc1cccc(NC(=O)Cc2nnc(SCC(=O)NC3CCCCC3)n2C)c1 — higher, 12.9%
- CCOC(=O)/C(=C\c1c[nH]c2ccccc12)NC(C)=O — higher, 9.03%
- COC(=O)c1cc2c(cc1[N+](=O)[O-])OCO2 — higher, 9.47%
- COCc1cc(C)nc(SCC(=O)Nc2nc(C)cs2)c1C#N — higher, 11.2%
- O=c1[nH]c(O)c(N=Nc2ccc(S(=O)(=O)N3CCOCC3)cc2)c(=O)[nH]1 — lower, 0.377%
- CC(C)CNC(=O)c1cc(-c2ccc(Br)cc2)on1 — higher, 15.4%
- CCN1CCN(CC2COc3ccccc3O2)CC1.Cl (stereo not shown) — lower, 7.79%
- NCCc1c[nH]c2ccc(OCc3ccccc3)cc12 — higher, 9.3%
- N/C(=N\OC(=O)CC1CCCCC1)c1cccc(Br)c1 — higher, 22.2%
- CCCC1=C(C(=O)OCC)C2(C(=O)Nc3ccc(C)cc32)C(C#N)=C(N)O1 (stereo not shown) — lower, -2.15%
- CO/N=C/CC(=O)c1cnc(-c2ccccc2)s1 — higher, 14.9%
- Cc1nc2ncnn2c(C)c1CCC(=O)Oc1ccccc1 — lower, 7.03%
- CNC(=O)COC(=O)/C=C/c1cccs1 — lower, 3.18%
- CCN(CCn1cccn1)C(=O)c1cc(COc2c(F)cccc2F)on1 — lower, 5.53%
- c1ccc(OCCOCCSc2ncccn2)cc1 — higher, 11%
- O=C(NCCN1C(=O)S/C(=C\c2ccc(F)cc2)C1=O)c1cccc(S(=O)(=O)N2CCOCC2)c1 — higher, 9.39%
- CCOC(=O)/C(C#N)=C1/C=C(C)NC(c2ccccc2O)=N1 — higher, 11.7%
- Cc1cc(C)nc(NS(=O)(=O)c2ccc(N/C=C/C(=O)c3ccc(Cl)cc3)cc2)n1 — lower, -4.41%
- O=C(/C=C/c1cccs1)c1cc(Br)ccc1OC(=O)N1CCOCC1 — lower, -1.22%
- CCCC(CCC(=O)Nc1ccn(-c2ccccc2)n1)C(=O)O (stereo not shown) — lower, 8.13%
- COc1ccc(-n2nc3c(c2NC(=O)c2cc4ccccc4o2)CS(=O)(=O)C3)cc1 — lower, -5.18%
- CC(C)c1ccc(/C=N/NC(=O)c2cccc(S(=O)(=O)N3CCOCC3)c2)cc1 — higher, 10.5%
- Cc1ccc(N=C2NC(=O)c3cccc([N+](=O)[O-])c32)cc1 — lower, 3.07%
- COc1cc(C(=S)N2CCOCC2)ccc1OC(=O)c1ccc(Br)cc1 — lower, 8.85%
- Cc1csc(NC(=O)C2CSC3(C)CCC(=O)N23)n1 (stereo not shown) — lower, 8.58%
- CCOc1ccccc1NC(=O)C(=O)N/N=C/c1ccc([N+](=O)[O-])cc1 — lower, -13.7%
- CC(=O)Nc1cccc(NS(=O)(=O)c2cn(C)c(=O)n(C)c2=O)c1 — lower, -6.58%
- COc1ccc(OCCCC(=O)OCC(=O)Nc2nnc(-c3ccccc3)o2)cc1 — lower, 5.71%
- CN1CCN(c2ccc(S(=O)(=O)N3CCCCC3)cc2NC(=O)Cc2ccc(Cl)cc2)CC1 — lower, -50.6%
- N#Cc1cc(Cl)c(NCC2CCCO2)cc1C#N (stereo not shown) — higher, 16.7%
- COc1ccc(NC(=O)CN(C)C(=O)CN2C(=O)c3ccc([N+](=O)[O-])cc3C2=O)cc1 — lower, 6.32%
- O=C(Nc1ccccc1C(=O)NC1CCCCC1)c1ccccc1 — lower, 3.09%
- CC(C)CC1(C)N=C(c2ccccc2)C(=S)N1 (stereo not shown) — higher, 13.6%
- O=C(NCc1ccncc1)c1c(F)c(F)c(F)c(F)c1F — lower, 6.44%
- Cc1nc(SCc2ccc(Cl)c(Cl)c2)ncc1C(=O)O — lower, 8.46%
- COc1ccc(-c2nc(-c3ccc(NC(=O)c4ccc(Br)o4)cc3)no2)cc1OC — higher, 10.6%
- COc1ccc(N(Cc2cc3cc(OC)ccc3[nH]c2=O)S(C)(=O)=O)cc1 — higher, 13.4%
- COc1cccc(C2Cc3ccccc3C(=O)O2)c1 (stereo not shown) — higher, 9.13%
- COCc1cccc(C(=O)NC(c2ccccc2)c2ccccc2)c1 — lower, -10.1%
- CCCn1c(C)cc(/C=C(\C#N)C(=O)OCC(=O)NC(=O)NC(C)(C)C)c1C — lower, 7.56%
- O=C1N(c2ccccc2)C(=Nc2ccccc2)SC12CC2 — higher, 20%
- Cc1ccc(C2N(c3ccc(Cl)cc3)C(=O)N3CCCN23)cc1 (stereo not shown) — lower, 4.83%
- COc1cccc(NC(=O)CC(=O)c2ccc([N+](=O)[O-])cc2)c1 — lower, 0.51%
- CC(C)N1C(=O)CCC1C(=O)NCCc1ccc(Cl)cc1 (stereo not shown) — lower, 6.79%
- COC(=O)CSc1nnc(SCc2ccccc2)s1 — higher, 12.5%
- Cc1ccc(C)c(C(=O)CC2(O)C(=O)N(C)c3ccccc32)c1 (stereo not shown) — higher, 12.3%
- O=C(COC(=O)c1cccc(Cl)c1Cl)NCc1cccs1 — lower, 8.1%
- Cc1cccc(N2CCN(CC(=O)NCC3CCCCC3)CC2)c1C.Cl — lower, 2.11%
- O=C(CN1CCN(Cc2ccc3c(c2)OCO3)CC1)c1c[nH]c2ccccc12 — lower, -31.4%
- CCCCn1c(N)c(N(CC(C)C)C(=O)C2CCN(S(=O)(=O)c3ccccc3)CC2)c(=O)[nH]c1=O — lower, 3.22%
- COc1ccc(C2C(C(=O)c3ccco3)=C(O)C(=O)N2CC2CCCO2)c(OC)c1 (stereo not shown) — higher, 21.2%
- C/C(Cn1nnc([N+](=O)[O-])n1)=N\NC(=O)c1ccccc1 — lower, 4.41%
- Cc1ccc(-n2c(C(C)n3nc(C)c([N+](=O)[O-])c3C)n[nH]c2=S)cc1 (stereo not shown) — lower, -4.1%
- COc1cc(C2c3c(oc4ccccc4c3=O)C(=O)N2CCN2CCOCC2)cc(OC)c1OC (stereo not shown) — lower, 0.056%
- Cc1ccc2[nH]c(=O)c(-c3noc(C(C)C)n3)cc2c1 — lower, 4.76%
- Cc1ccc(NC(=O)CCNC(=O)Nc2ccccc2)cc1S(=O)(=O)N(C)C — lower, 5.54%
- FC(F)Sc1ccc(-n2c(-c3ccc(Cl)cc3)c[n+]3c2CCC3)cc1.[Br-] — lower, -32.9%
- CCOC(=O)N1CCN(C(=O)CN(c2ccccc2OC)S(=O)(=O)c2ccc(C)cc2)CC1 — lower, 0.0178%
- Cc1ccc(NC(=O)CSc2n[nH]c(-c3ccco3)n2)cc1 — lower, 8.19%
- CCOC(=O)c1c(NC(C)=O)sc2c1CCCNC2=O — lower, 6.21%
- COc1ccc(N(CC(=O)NCCSCc2ccc(Cl)cc2)S(C)(=O)=O)cc1Cl — higher, 15%
- CCN(CC)CCCNc1oc(-c2cccc(Cl)c2)nc1C#N — lower, -14.9%
- Cc1c(CN2CCN(c3cccc(C(F)(F)F)c3)CC2)c(=O)n(-c2ccccc2)n1C — lower, -18.4%
- CC(=O)NC(Cc1cc(C)ccc1C)C(=O)N1CCN(C(=O)Nc2ccc(C(C)=O)cc2)CC1 (stereo not shown) — lower, -2.7%
- O=[N+]([O-])c1cccc(-c2ccc(SCc3cccnc3)nn2)c1 — lower, 0.911%
- CC1CC(C)CN(CCCNC(=O)Cn2ncc3c(=O)oc4ccccc4c32)C1 (stereo not shown) — lower, -12.3%
- O=C(Nc1ccc([N+](=O)[O-])cc1)N1CCCCC1 — lower, 3.25%
- CC1=C(C(=O)Nc2ccccc2C(=O)NCCCN2CCN(C)CC2)SCCO1 — higher, 14.4%
- O=C(COC(=O)c1nc(Cl)ccc1Cl)NC1CCCCC1 — higher, 13.2%
- COc1ccc(CCNC(=O)Cn2nnc(-c3ccccc3F)n2)cc1OC — higher, 10.1%
- O=S(=O)(c1ccc(F)c(Cl)c1)N1CCCC1 — higher, 18.2%
- O=C(Nc1ccc(F)c(F)c1)c1ccccc1-c1ccccc1 — lower, -2.6%
- NC(=O)c1ccc(Oc2ccc(C(N)=O)cc2)cc1 — higher, 14.2%
- Nc1ccc(-c2nnn(Cc3ccccc3F)n2)cc1 — lower, 5.25%
- CN1CCN(c2nc(N3CCN(c4ccccc4)CC3)ncc2F)CC1 — lower, -10.4%
- Cc1cccc(-c2noc(CSc3ccccc3)n2)c1 — higher, 14.6%
- CCCNC(=S)NNC(=O)c1cc(C2CC2)nc2ccccc12 — higher, 16.1%
- O=C(NCc1ccco1)c1ccc(-c2csnn2)cc1 — lower, 7.5%
